The nature of assay [1]: qHTS assay for small molecule agonists of the p53 signaling pathway - cell viability (AID 651633). Further: nearly all actives have a fitted effect of over 30% in size. As to conditions: p53RE-bla HCT-116 viability, ATP luminescence, 16 h. A digest of the protocol:
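Viability counter-read: CellTiter-Glo luminescence (30 min, room temperature) in the same p53RE-bla plates. These plates had been exposed to compounds for 16 h at 37 C.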

Assay [2] can be described thus: qHTS assay for identifying genotoxic compounds that show differential cytotoxicity against isogenic chicken DT40 cell lines with known DNA damage response pathways - wild type cell line (AID 743012; active means well fitted cell-killing curve with a large enough effect in the repeat runs; further: nearly all actives have a fitted effect of over 60% in size). As to conditions: DT40 wild type chicken cells viability, CellTiter-Glo, 40 h. A digest of the protocol:
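Viability of DNA repair-proficient chicken DT40 cells was assessed by CellTiter-Glo luminescence following 40 h compound exposure at 37 C/5% CO2.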
A general note: In qHTS, concentration-response curves come from the screen itself.

Assay [3] can be described thus: qHTS assay to identify small molecule antagonists of the thyroid receptor (TR) signaling pathway - cell viability counter screen (AID 743064; active means well fitted cell-killing curve with a large enough effect in the repeat runs; further: nearly all actives have a fitted effect of over 50% in size). The conditions noted are these: GH3.TRE-Luc viability, CellTiter-Fluor, 24 h. Put shortly:
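Rat GH3 pituitary tumor cells stably expressing two TR response elements driving luciferase were plated, rested 4 h, then dosed with library compounds and T3 (1 nM final). After 23.5 h at 37 °C, CellTiter-Fluor was added for 30 min and fluorescence recorded.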

The nature of assay [4]: qHTS assay to identify small molecule agonists of the sonic hedgehog signaling (Shh) pathway (AID 1259368). Further: nearly all actives have a fitted effect of over 15% in size. The conditions noted are these: NIH/3T3 Gli1-Luc reporter, luciferase, 24 h; series mostly up to 92.4 µM. Put shortly:
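Following a 24 hr incubation with DMSO-dissolved compounds at 37 C, 5% CO2, Gli1-Luc NIH/3T3-derived cells received luciferase reagent for 30 min at room temperature prior to luminescence measurement.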

A short description of assay [5]: qHTS assay to identify small molecule agonists or antagonists of the thyroid stimulating hormone receptor (TSHR) signaling pathway - wild type cell line counter screen (AID 1259384). As to conditions: HEK293 wild type, cAMP HTRF counter-screen; series mostly up to 92.4 µM. Put shortly: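 Counter screen in untransfected Hek293: compounds (15-point titration, triplicate) plus phosphodiesterase inhibitor Ro20-1724 added after 18 h plating; 30 min RT. Intracellular cAMP via competitive d2/cryptate immunoassay, 1 h incubation.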

Inconclusive results are not listed. Unless noted, the call rests on the fitted dose curve. Some entries of the source have several records that differ or are many. The list is limited to them. The source may hold further records. Values that stand side by side are repeats across runs, samples, wells, individuals or studies. Some compounds were tested as several samples or in several runs, with calls that do not always agree. A tag in brackets gives the origin of a value. Letters count within one entry.
Potency means the concentration at half of the fitted maximal effect.

For `Nc1nc(=S)c2[nH]cnc2[nH]1`, the Potency entry is “active: 2.37 µM, 1.88 µM, 750 nM, 545 nM [separate samples]” in assay [1] and “active: 1.68, 1.19, 4.73, 2.17 µM [separate samples]” in assay [2].
As for `CCCCC(CC)COC(=O)CC(C(=O)OCC(CC)CCCC)S(=O)(=O)O` (stereo unspecified), in assay [3], the Potency result was “active: 26.6, 18.8, 58.8, 61.1 µM [separate samples]”.
In the case of `Nc1ccc2cc3ccccc3cc2c1`, in assay [4], the Potency entry was “active: 9.86 µM [sample A] and inactive [sample B]”.
With `NNCCc1ccccc1`, the Potency entry in assay [4] is “active: 21.8 µM [sample A] and inactive [sample B]”.
With `CC(=O)OCCOCCOCCOC(C)=O`, the Potency entry in assay [5] was “active: 569 nM [sample A] and inactive [sample B]”.

These data come from PubChem BioAssay (Tox21).
